# In the supplement of paper PMC3334620:
# Whole data set: some 33,000 sequences, median “E-score (-0.5 to 0.5)” near -0.054, cut for the highest 2% near 0.39. The list shows a part of the results.
# Target: Ylr278c (UniProt Q05854)
# Test: PBM E-score (8-mer binding enrichment) (E-score (-0.5 to 0.5)); higher = stronger / more preferred TF binding; most listed sequences are background and not binding sites
# Conditions: protein concentration: 200 nM; construct: GST-DNA-binding domain
# Method in brief: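 For each ungapped eight-base word taken together with its reverse complement, the Universal PBM Analysis Suite assigned an E-score. Binding data came from GST-tagged yeast transcription factors, applied at about 100-200 nM, on universal all-10-mer Agilent arrays made double-stranded by primer extension. Fluorescent anti-GST marked bound protein, and scans were normalised with masliner.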
row,Sequence,PBM E-score
1,AATGACTA,-0.169
2,AAGATGAT,-0.185
3,ATGTGGGG,-0.113
4,AGCTGTAG,-0.127
5,GCCCCCAA,-0.387
6,ACATTGGT,-0.1
7,GGTAGAAC,-0.164
8,ACTATAAG,-0.183
9,GAGGTGGC,-0.0782
10,TGGATTAA,-0.101
11,CTCCCGTA,0.0526
12,AGCCGAAA,0.169
13,CGCTGACA,-0.00094
14,GGCTTGCA,-0.118
15,GTGCTAAC,0.134
16,AATTTACC,0.064
17,ATCATATA,-0.142
18,CCACAATC,0.0776
19,CTCCTATA,-0.237
20,CGTGCCTC,0.00113
21,GCACTTAC,-0.00945
22,TAAGGACA,-0.156
23,GAACTGAA,-0.00699
24,AGTCCGGC,0.44
25,ACATAGAG,-0.255

row,Sequence,PBM E-score
1,CAGGAAGA,-0.0182
2,ACGTCTGA,-0.195
3,ACAATGCT,-0.188
4,CTGACACC,-0.0644
5,ACGGACCA,0.274
6,CTATAAGA,-0.286
7,GCCCTTAC,-0.0812
8,ACCACCAG,-0.17
9,CAGGGGCC,-0.0973
10,ACTCGAGA,-0.0777
11,GCGGGCAC,0.267
12,CTCCTCAG,-0.166
13,GTCATCGA,-0.239
14,TCCGTCGA,0.326
15,TCGAAACA,-0.109
16,CTTCCAGC,-0.09
17,TCCTGCGA,-0.0109
18,ATGCTTTA,-0.13
19,GGCGCGCA,0.171
20,CGGAGGTA,0.426
21,AGAGGTCG,0.00929
22,AGCTTTTC,-0.0398
23,CTTGTAAC,-0.0525
24,AGGTTACG,-0.14
25,CTCGAGTA,-0.134

row,Sequence,PBM E-score
1,CCGCAGTA,0.0633
2,ACATTAGT,-0.176
3,GTAAGCAA,-0.0677
4,TACGAGGA,-0.0382
5,AATACTTA,-0.108
6,CTTTTGGC,-0.197
7,AATGCAAC,-0.231
8,ATACTTAA,-0.0506
9,TAATTCGA,-0.31
10,CTGACATC,-0.0317
11,ATTTCAGC,-0.131
12,CAGTTTAA,-0.0515
13,ACCTGGGA,-0.0989
14,AAGTGGTC,-0.012
15,CTGCCATC,-0.0723
16,GAGGTACC,0.0243
17,ACCCGCTA,0.0924
18,AGAAGTAA,-0.127
19,ATTCTGTA,-0.0732
20,CGACACCC,0.0622
21,CGCATCTA,0.183
22,CATGTCCC,-0.00532
23,AAATTATG,0.00911
24,CCGTTAAG,-0.0625
25,GATCAGCC,-0.123

row,Sequence,PBM E-score
1,TGCAATAA,-0.0609
2,CGGATTGA,0.247
3,AACGTGAC,-0.0927
4,CGGTAGAA,-0.0537
5,ATTGACGG,0.202
6,AGTTTGGG,-0.00706
7,AGCGGATC,0.301
8,AATCAGTG,-0.0844
9,AATGATGC,0.0498
10,AGCAAAAC,-0.0521
11,CAGGTAAA,0.00382
12,CACACCGA,0.039
13,GGTTGACA,-0.1
14,ACATAACT,-0.0404
15,CATGCGAG,-0.0432
16,GCTGAGCC,0.0048
17,AAGAAAGG,-0.276
18,AGCTTCAG,-0.269
19,AGAAAATG,-0.098
20,ACAGGGAT,-0.202
21,ATCGAAGC,-0.026
22,ACCAACCA,-0.0667
23,CAGGGACC,-0.3
24,CGTCGTTC,0.137
25,AGCCCCAT,-0.135

row,Sequence,PBM E-score
1,CCATGGGA,-0.164
2,CATGAGAA,0.0426
3,CCTGGGTA,-0.18
4,CTTCCGTC,0.292
5,CCGGGGCA,0.293
6,CCATTCAC,-0.042
7,AAAACCCT,0.0326
8,CCATCTAG,-0.18
9,CGTTTACA,-0.113
10,GATACTGA,-0.0695
11,GCTGCTAC,-0.18
12,CCCATTAC,-0.195
13,GGGCCGAC,0.228
14,ACTCGGCG,0.256
15,CTTGCTAA,-0.303
16,ACCGTATG,-0.00992
17,ACCAAGAT,-0.0275
18,AGTGAAGG,-0.176
19,CCACCAAA,-0.0898
20,AATGTGGA,-0.0722
21,CATTCAGG,-0.179
22,ACAGGCAA,-0.209
23,CATAGGGC,-0.103
24,GACGGGTA,-0.0791
25,AGAGCGGC,0.156

row,Sequence,PBM E-score
1,ATATGATC,-0.031
2,ATTGCCAA,-0.189
3,GTGAAGCA,-0.118
4,GCCAAAGA,-0.117
5,CGGTGTGA,0.154
6,GAATGCGC,0.182
7,ATGACTAA,-0.146
8,CCTGGGGA,-0.36
9,ACCGATGC,0.246
10,CAAGAGCG,-0.104
11,GTAGACAC,0.0464
12,TCAAACCA,0.125
13,CACTCTAC,-0.104
14,ACCAGCAG,-0.361
15,CGGTGGTC,0.191
16,ACATTCAT,0.0396
17,AGCCAGGA,-0.173
18,ATCGGGCA,0.0485
19,GGCTCACC,-0.111
20,TGCAACAA,-0.131
21,GTATTAGA,-0.0651
22,GCGGAGCC,0.394
23,ATAAGATG,-0.193
24,ATACCACC,0.042
25,CATGCTAG,-0.256

row,Sequence,PBM E-score
1,CATATGTC,-0.0724
2,CTCTATCC,-0.094
3,CTTGCTCC,0.173
4,GTCGACTA,0.00622
5,GGTTCTAC,-0.0143
6,AATTCAAG,-0.119
7,ACTTGGGA,-0.066
8,GCTCAAAA,-0.0485
9,CTCATGCA,-0.147
10,TTATTAAA,0.0354
11,GGCATGCC,0.153
12,ATTTTCTC,0.131
13,AGTAGCCA,-0.271
14,AGATTCGA,-0.11
15,AAAGACCT,-0.0813
16,GATTGATA,-0.196
17,CATGCTGC,-0.0378
18,CTGATAGA,0.0139
19,CCCTTATA,-0.0646
20,AAGGAAAG,-0.0889
21,CTCAAGTC,-0.225
22,AACGGGGC,0.147
